Some of the results follow. The list includes weakly bound sequences.
The sequences below were run against MaxL homodimer (UniProt P61244) (assay: universal protein-binding microarray (PBM)). Conditions: PBS-based mixture, 10 nM His-tagged protein dimer, 2% milk, 200 ng/uL BSA, 50 ng/uL salmon testes DNA, 0.02% TX-100; detection with Alexa 488 anti-His …; high values mean tight binding; most listed sequences are background and not binding sites; double strand, one strand shown.
Chain of UniProt P61244 (P61244 whole entry): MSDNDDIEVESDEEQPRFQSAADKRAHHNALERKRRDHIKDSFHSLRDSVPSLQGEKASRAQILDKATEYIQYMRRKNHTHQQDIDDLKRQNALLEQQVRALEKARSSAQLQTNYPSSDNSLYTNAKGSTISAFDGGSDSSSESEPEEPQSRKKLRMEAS

| Sequence | binding signal (normalized occupancy) |
| --- | --- |
| GGAACACA | 0.0785 |
| CACCTACG | 0.0728 |
| CACATGAG | 0.109 |
| CATTATTA | 0.0832 |
| ACCGCGTA | 0.0727 |
| GAAAGGTC | 0.0773 |
| CAAACTAG | 0.0717 |
| CAGGTTTC | 0.0771 |
| AGTACTTA | 0.0757 |
| AGCCTCCG | 0.0658 |
| AGCGAACA | 0.0697 |
| GTCTGAGA | 0.0701 |
| CGAAAGGC | 0.0716 |
| CACCGCTA | 0.0676 |
| AATCTCTA | 0.0765 |
| CCCTATAC | 0.0796 |
| GACAAATA | 0.0759 |
| CTATCTGC | 0.0756 |
| AAGGATAT | 0.0819 |
| ACTTTGCC | 0.0691 |
| ACGCTATA | 0.085 |
| GGTCTTGA | 0.0779 |

| Sequence | binding signal (normalized occupancy) |
| --- | --- |
| GATACAAA | 0.0725 |
| ATTCGTGC | 0.0779 |
| ATATCGCA | 0.0785 |
| CACATTCA | 0.0824 |
| ACGTTTCG | 0.0744 |
| TAACCTAA | 0.0715 |
| ATTCGCGG | 0.0709 |
| CAGCACCA | 0.0778 |
| AGGAATAT | 0.0787 |
| AAACATAG | 0.0761 |
| TTTTAAAA | 0.0656 |
| GGTAGAAA | 0.0758 |
| TACGTAGA | 0.0768 |
| GACCTCTA | 0.0707 |
| AGGAACAG | 0.0793 |
| AACGGTCC | 0.068 |
| CGACGGCA | 0.072 |
| GGGCTTCA | 0.0716 |
| AAGGTTAT | 0.0732 |
| ATGAACTC | 0.0855 |
| ATGCCACA | 0.0905 |
| ATCAGGAT | 0.075 |

| Sequence | binding signal (normalized occupancy) |
| --- | --- |
| CTCAGTGC | 0.0665 |
| AGTCCGTC | 0.067 |
| CTGAGCCC | 0.0717 |
| ATAAACGA | 0.0801 |
| TCCGAGGA | 0.0705 |
| CCATCTAC | 0.0774 |
| GAGCGTAA | 0.0774 |
| ACTAGGGA | 0.0789 |
| ACGTTTAG | 0.0812 |
| AACCGGCC | 0.0652 |
| AAACCCCT | 0.0766 |
| ATGAACGA | 0.0808 |
| TCCCGACA | 0.0852 |
| CTACGTCA | 0.0708 |
| CGATCCCA | 0.0778 |
| ATGCAAAG | 0.0776 |
| GTAGAAAC | 0.0765 |
| AACAGGAG | 0.0788 |
| TACCTACA | 0.0795 |
| TCCAAGCA | 0.0737 |
| AGCCCAAT | 0.0746 |
| ATAAGACC | 0.0818 |

| Sequence | binding signal (normalized occupancy) |
| --- | --- |
| CAGAAGCA | 0.0742 |
| CGCTCATC | 0.0725 |
| CCCTCCTC | 0.0734 |
| ACGCTCGG | 0.0694 |
| CACTTCGG | 0.0755 |
| GTCCAGCA | 0.0732 |
| GACCCGCA | 0.0789 |
| AGCCCTGC | 0.0649 |
| GAACGCAC | 0.0789 |
| ACGCAGGG | 0.0718 |
| GGGAGGAC | 0.0747 |
| AAGTCCGC | 0.0701 |
| ATCGGATA | 0.0842 |
| CCTGAGTC | 0.0706 |
| AGTACTGA | 0.0748 |
| AATCCACT | 0.0739 |
| CGTCATAG | 0.075 |
| AGTGTCAA | 0.0751 |
| ATCCGCTG | 0.0744 |
| CCCGGGAA | 0.0686 |
| AGTCCTAG | 0.0729 |
| AAGTATCG | 0.0757 |

| Sequence | binding signal (normalized occupancy) |
| --- | --- |
| ATTATCAA | 0.0805 |
| CGCTATAG | 0.0755 |
| CTACTCGC | 0.0773 |
| AACCTGCA | 0.0719 |
| ACATAAGC | 0.0755 |
| AGTCACAC | 0.0886 |
| GCATTTAC | 0.0757 |
| CGATCATC | 0.0783 |
| AGATGTGC | 0.0825 |
| ATTCCTCG | 0.0818 |
| GTCAGGTA | 0.0771 |
| ATTGAAGA | 0.0753 |
| ACAAAAGT | 0.0714 |
| CCCACAGC | 0.0741 |
| AAATGAAC | 0.0771 |
| AAGTGTCA | 0.076 |
| TCTGATAA | 0.0824 |
| ATTCAATA | 0.0791 |
| ATGGACAT | 0.0812 |
| AGAGACCC | 0.0694 |
| AAACAAGC | 0.0657 |
